# Results reported in PubChem BioAssay AID1347073 (National Center for Advancing Translational Sciences (NCATS), 2019).
# Out of some 45,000 compounds screened, about 200 (0.44%) were called active. About 7% were inconclusive and are not listed. The call rests on the fitted dose curve; in most records, active means well fitted activation curve with a large enough effect; inconclusive means small, poorly fitted or top-dose-only effect; inactive means no such curve, though single readings can be large or run the other way. The list shows a part of the results.
# Test: qHTS of TDP-43 Inhibitors: NCGC Sytravon Library Screen; further: 0% is about no effect; nearly all actives have a fitted effect of over 55% in size
# Conditions: yeast TDP-43 toxicity rescue, BacTiter-Glo growth, 24 h; series mostly up to 46.1 µM; growth rescue (activation): at the top concentration
# How it was run: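 TDP-43-expressing yeast, pregrown in raffinose, seeded at OD600 0.02 in galactose medium with compound for 24 hr at 30 deg C. Growth read by BacTiter-Glo luminescence, so rescue of toxicity appears as activation.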
row,SMILES,growth rescue (activation)
1,COc1cc(/C=N/Nc2ccccn2)ccc1O,inactive: -7.15%
2,CCc1cc(-c2n[nH]c(CCC(=O)O)c2-c2nc3ccccc3n2C)c(O)cc1O,inactive: -1.55%
3,CC(=O)c1ccc(N2C(=O)CC(N3CCN(S(=O)(=O)c4cc(C)ccc4C)CC3)C2=O)cc1 (stereo not given),inactive: 20.8%
4,CCN(CC)CCCNC(=O)c1ccc(OCC(=O)Nc2ccccc2C(F)(F)F)c(OC)c1,inactive: 11.6%
5,Cc1ccc(C)n1-c1nnc(N2CCC(C(=O)NCc3ccccc3Cl)CC2)s1,inactive: 2.74%
6,CC(NC(=S)Nc1c(Br)cccc1OC(F)F)C(C)(C)C (stereo not given),inactive: 22.4%
7,COc1ccccc1C(=O)NNC(=O)C1CCCO1 (stereo not given),inactive: -44.5%
8,CCOC(=O)C1CCN(Cc2cc(C(C)(C)C)c(O)c(C(C)(C)C)c2)CC1,inactive: -1.13%
9,N/C(=N\OC(=O)C(c1ccccc1)c1ccccc1)c1ccncc1,inactive: 17.4%
10,O=C(c1cc(C2CCCCN2C(=O)CCCc2ccccc2)on1)N1CCOCC1 (stereo not given),inactive: -5.25%
11,Cc1ccc(S(=O)(=O)N2CCOCC2)cc1NC(=O)COC(=O)Cc1ccccc1,inactive: 6.45%
12,O=c1[nH]c2ccccc2nc1C(F)(F)F,inactive: 13.1%
13,COc1ccc(NC(=O)c2cc(-c3cc(OC)c(OC)c(OC)c3)nc3ccccc23)cc1OC,inactive: 4.53%
14,CCOc1ccc(/C=C2\SC(=S)N(C)C2=O)cc1OC,inactive: -5.7%
15,COc1ccc(Cl)cc1NC(=S)NNC(=O)C1(C)CC1(Cl)Cl (stereo not given),inactive: 5.82%
16,CC(C)(C)NC(=O)c1ccccc1NC(=O)c1ccc2c(c1)OCO2,inactive: -6.28%
17,O=C(CSc1nc2ccccc2[nH]1)c1ccccc1F,inactive: 3.67%
18,CC(=O)Nc1ccc(C(=O)Nc2ccc(S(=O)(=O)N3CCCCC3)cc2)cc1,inactive: 4.63%
19,Cc1cc(Oc2ccc(=O)n(C)n2)nc(Oc2ccc(=O)[nH]n2)n1,inactive: -3.8%
20,CCOc1ccc(NC(=O)CCNC(=O)c2ccc(Br)cc2)cc1,inactive: -8.77%
21,CC(NC(=O)Cn1c(NCCO)nc2ccccc21)C1CC2CCC1C2 (stereo not given),inactive: -15.3%
22,COc1cc(NC2c3ccccc3C(=O)N2Cc2ccccc2)cc(OC)c1OC (stereo not given),inactive: 29.6%
23,CN(C)C(=O)C1C2NC(=S)N(c3cccc(Cl)c3)C1(C)Oc1ccc(Cl)cc12 (stereo not given),inactive: 17.9%
24,CCOc1ccc2nc(/N=C/c3nc(-c4ccc(Br)cc4)oc3O)sc2c1,inactive: -14.2%
25,CN(CCO)c1cc(N2CCCCC2)c2nonc2c1[N+](=O)[O-],inactive: -7.18%
26,O=C1c2cccnc2C(=O)N1c1cccc([N+](=O)[O-])c1,inactive: -20%
27,CCn1cc(C(=O)Nc2cccc(NC(C)=O)c2)c2cc(OC)c(OC)cc2c1=O,inactive: 17%
28,Cc1cc(C)nc(N2CCCC(C(=O)Nc3cccc(Cl)c3)C2)n1 (stereo not given),inactive: 12.8%
29,CCNc1c([N+](=O)[O-])c(=O)n(CC)c2ccccc12,inactive: 5.06%
30,CC(=O)NCCCc1nc2ccccc2n1Cc1ccccc1F,inactive: -12.7%
